Laboratory results published in PMC9860685, “α-Crystallin Domains of Five Human Small Heat Shock Proteins (sHsps) Differ in Dimer Stabilities and Ability to Incorporate Themselves into Oligomers of Full-Length sHsps” (International Journal of Molecular Sciences, 2023).

Assays:
full-length HspB6 = target: T1, full-length HspB6 (human, UniProt O14558 1-160); test: native gel or EMSA; clear native PAGE, 12.5% gel, 80 mM glycine–Tris pH 8.6; sHsp 5–6 μM per monomer mixed with ACD 20–24 μM per monomer, 30 min at 25 °C in buffer B; Western blot with anti-HspB6 for the complexes of HspB6; settings: both partners purified
T1 construct: Predominantly dimeric by cited work; also called B6FL
T1 sequence (looked up): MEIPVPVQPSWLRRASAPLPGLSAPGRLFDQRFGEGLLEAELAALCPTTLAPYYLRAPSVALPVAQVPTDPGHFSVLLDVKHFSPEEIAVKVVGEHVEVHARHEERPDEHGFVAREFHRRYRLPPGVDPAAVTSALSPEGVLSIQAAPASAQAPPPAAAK

[1] = target: the molecule itself; test: SEC; Superdex 75 10/300 GL, 50 mM phosphate pH 7.4, 150 mM NaCl, 2 mM DTT; 25 μL samples of 16–150 μg (25–600 μM per monomer); apparent dissociation constant, dimer to monomers, from a hyperbolic fit of elution volume against the concentration loaded
[2] = target: the molecule itself; test: SEC-MALS; Superdex 200 Increase 10/300, 20 mM Tris–HCl pH 7.5, 150 mM NaCl, 3 mM β-mercaptoethanol; 2 mg/mL, 90 µL loaded
[3] = target: T2, 3D mutant of HspB1 (S15D, S78D, S82D) (human, UniProt P04792, S15D | S78D | S82D); test: SEC; full-length sHsp (~19–20 μM per monomer) mixed with ACD (38–110 μM per monomer) in buffer B, 30 min at 42 °C; Superdex 200 Increase column in 50 mM phosphate pH 7.4, 150 mM NaCl, 2 mM DTT; fractions analysed by SDS–PAGE; settings: both partners purified
T2 construct: human HspB1, full length, with three phosphomimicking point mutations; Forms small oligomers (probably dimers or tetramers, by cited work); also called full-length 3D mutant

B1: α-crystallin domain of HspB1 (B1ACD) (domain or fragment)
chain: not shown
notes: human HspB1, α-crystallin domain, […]; Cloned by NdeI and XhoI into pET23b; In equilibrium of monomers and dimers; also called HspB1 ACD; source: E. coli, purified (ammonium sulfate fractionation, ion-exchange chromatography, size-exclusion chromatography)
B1 was tested, and the binding result (full-length HspB6) was “binds”, the Kd [1] was 27 µM and the “stoichiometry N” value [2] was 2. B1: binds [3].
